In PubChem BioAssay AID588342 (National Center for Advancing Translational Sciences (NCATS), 2011):
Out of some 360,000 compounds screened, about 25,000 (6.9%) were called active. Inconclusive results, whose numbers are uncertain, are shown with a selection of clear calls. Calls come from the whole dose curve; as a rule, active = well fitted inhibition curve with a large enough effect; inconclusive = small, poorly fitted or top-dose-only effect; inactive = flat fitted curve, though single readings scatter. A potency beside an inconclusive call is a rough fit, not a confirmed value.

The compounds below were run against Luciferin 4-monooxygenase (Photinus pyralis) (UniProt P08659) (assay: qHTS profiling assay for firefly luciferase inhibitor/activator using purifed enzyme and Km concentrations of substrates (counterscreen for miR-21 project)). Conditions: purified FLuc, luminescence inhibition; activity change, negative = inhibition: at 57.5 µM (top of the series).
Sequence of UniProt P08659 (P08659 whole entry, looked up): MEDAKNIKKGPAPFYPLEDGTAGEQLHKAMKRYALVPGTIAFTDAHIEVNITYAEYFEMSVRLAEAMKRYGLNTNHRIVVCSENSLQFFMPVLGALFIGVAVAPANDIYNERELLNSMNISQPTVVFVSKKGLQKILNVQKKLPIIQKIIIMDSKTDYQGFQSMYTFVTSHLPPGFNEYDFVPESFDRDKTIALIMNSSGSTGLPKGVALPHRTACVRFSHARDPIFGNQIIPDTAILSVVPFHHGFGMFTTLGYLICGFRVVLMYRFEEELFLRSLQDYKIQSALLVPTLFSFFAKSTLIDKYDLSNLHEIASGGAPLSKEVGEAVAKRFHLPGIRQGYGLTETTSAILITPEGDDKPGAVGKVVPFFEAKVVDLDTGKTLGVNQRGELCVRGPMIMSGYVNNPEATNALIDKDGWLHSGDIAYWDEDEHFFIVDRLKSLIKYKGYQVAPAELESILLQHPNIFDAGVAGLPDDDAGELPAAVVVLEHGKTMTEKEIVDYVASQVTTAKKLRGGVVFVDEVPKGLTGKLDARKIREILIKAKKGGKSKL
Outline: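 Purified P. pyralis luciferase, 10 nM final, with Km-level 10 uM D-luciferin and 10 uM ATP in 50 mM Tris acetate pH 7.5, 10 mM Mg acetate, 0.01% Tween-20, 0.05% BSA; 6-point qHTS titration about 60 µM downward; luminescence read.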
Note: nearly all actives have a fitted effect of over 55% in size.
Potency is the fitted concentration of half-maximal effect; tags give direction and shape of the fitted curve.
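Throughout, for activity change, negative = inhibition: plate controls were vehicle for no effect and reference inhibitor for full effect.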

Row | Structure (SMILES) | Potency | activity change, negative = inhibition
1 | CC1CC2c3cccc(C(=O)O)c3C(=O)N2c2ccc(Cl)cc21 (stereo not drawn) | inconclusive: 26.9 µM [inhibitor, partial curve, poor fit] | –
2 | COc1ccc(C(=O)NC(=S)NC2CCSC2=O)cc1 (stereo not drawn) | inconclusive: 21.3 µM [inhibitor, single point] | –
3 | Cc1cccc(/C(N)=N/OC(=O)COc2ccc(Cl)c(C)c2)c1 | – | inactive: -13.4%
4 | CCC(Oc1ccccc1)C(=O)Nc1nc2ccccc2[nH]1 (stereo not drawn) | inconclusive: 23.9 µM [inhibitor, single point] | –
5 | Nc1nn2c(C(F)(F)F)cc(=O)[nH]c2c1N=Nc1cccc(F)c1 | inconclusive: 21.3 µM [inhibitor, single point] | –
6 | O=C(N/N=C\c1ccncc1)c1ccc(Cl)s1 | active: 16.9 µM | –
7 | Cc1ccc(Cn2c(=O)n(Cc3ccco3)c(=O)c3sc4ccccc4c32)cc1 | – | inactive: -1.54%
8 | Cc1cc(C)c2nc(-c3ccccn3)cc(C(=O)Nc3ccc(S(=O)(=O)Nc4onc(C)c4C)cc3)c2c1 | inconclusive: 23.9 µM [inhibitor, partial curve, poor fit] | –
9 | CN1CCc2c(sc(/N=C/c3cc(C(C)(C)C)ccc3O)c2C#N)C1 | inconclusive: 16.9 µM [inhibitor, partial curve, poor fit] | –
10 | O=C(CCCc1ccccc1)NCc1ccccc1 | inconclusive: 26.9 µM [inhibitor, single point] | –
11 | Cc1ccc(-n2c(=O)c3c(c4cc(C)ccc4n3C)n(CC(=O)Nc3c(C)cccc3C)c2=O)cc1 | – | inactive: -2.58%
12 | Fc1ccc(/C=N/N2CCN(Cc3ccccc3)CC2)cc1 | inconclusive: 21.3 µM [inhibitor, partial curve, poor fit] | –
13 | Cc1ccccc1C(=O)Nc1cccc(NC(=O)c2ccccc2[N+](=O)[O-])c1 | inconclusive: 21.3 µM [inhibitor, single point] | –
14 | COCCOC(=O)/C(=C/c1ccc(OC(=O)c2ccccc2)cc1)C(C)=O | inconclusive: 23.9 µM [inhibitor, single point] | –
15 | C=CCn1c(CCNC(=O)c2ccccc2F)nnc1SCC(=O)Nc1nc2ccccc2s1 | – | inactive: -18.8%
16 | C/C(=N/OC(=O)c1ccc(C)cc1)C(=O)c1ccc(Br)cc1 | – | inactive: -17.5%
17 | N#Cc1ccc(S(=O)(=O)N2CCc3[nH]c4ccc(F)cc4c3C2)cc1 | – | inactive: -3.15%
18 | CCN(CC)c1ncnc2c1sc1nc(N3CCOCC3)c3c(c12)CCC3 | inconclusive: 30.1 µM [inhibitor, partial curve, poor fit] | –
19 | COc1ccc(-n2nc([N+](=O)[O-])c(=NCc3ccc4c(c3)OCO4)n2O)cc1 | inconclusive: 7.57 µM [inhibitor, partial curve] | –
20 | Cc1ccc(O)c(N=NC2=C(O)CC(C)(C)CC2=O)c1 | inconclusive: 7.57 µM [inhibitor, single point] | –
21 | CC(=O)c1cccc(NC(=O)C(C)OC(=O)c2cccc(-n3cnnn3)c2)c1 (stereo not drawn) | – | inactive: 3.93%
22 | Cc1cc(C)c2nc(N3CCCC(C(=O)NCc4cccc(Cl)c4)C3)sc2c1 (stereo not drawn) | inconclusive: 13.5 µM [inhibitor, partial curve, poor fit] | –
23 | COc1cc(NC(=O)c2cc3ccccc3cc2O)c(OC)cc1Cl | active: 9.53 µM | –
24 | N#Cc1cc2c(nc1SCC1COc3ccccc3O1)CCC2 (stereo not drawn) | inconclusive: 23.9 µM [inhibitor, partial curve] | –
25 | O=c1[nH]c(COc2ccc(Cl)cc2Br)nc2ccccc12 | active: 6.01 µM | –

Row | Structure (SMILES) | Potency | activity change, negative = inhibition
26 | COc1ccc(CCNC(=O)c2[nH]c(C)c(C(C)=O)c2C)cc1OC | – | inactive: 5.88%
27 | Cc1cccc(Nc2nnc(SCC(=O)Nc3ncc(C(F)(F)F)cc3Cl)s2)c1C | inconclusive: 26.9 µM [inhibitor, single point] | –
28 | CCSc1nnc(NC(=O)c2cccnc2Cl)s1 | inconclusive: 26.9 µM [inhibitor, single point] | –
29 | O=C(CSc1n[nH]c(=O)[nH]c1=O)Nc1ccc2c(c1)C(=O)c1ccccc1C2=O | inconclusive: 26.9 µM [inhibitor, partial curve, poor fit] | –
30 | COc1ccc(NS(=O)(=O)c2cccc(C(=O)NC3CCC(O)CC3)c2)cc1 (stereo not drawn) | – | inactive: 0.462%
31 | CCOc1ccc(C(=O)Cc2cc(OC)c(OC)cc2[N+](=O)[O-])cc1 | – | inactive: -11.1%
32 | CCc1ccc(CNC(=O)c2ccc3nc(SCc4ccc(F)cc4)n(C)c3c2)cc1 | – | inactive: 5.67%
33 | Clc1ccc(OCCCn2ccnc2)c(Br)c1 | active: 19 µM | –
34 | O=C(CSc1ncnc2ccccc12)Nc1ccc2c(c1)OCCO2 | active: 16.9 µM | –
35 | CN1CCN(c2ccccc2NC(=S)NC(=O)c2cc3ccccc3o2)CC1 | – | inactive: -0.0326%
36 | O=C(NCC1CCCO1)c1ccc(-c2cccc(C(F)(F)F)c2)o1 (stereo not drawn) | inconclusive: 23.9 µM [inhibitor, partial curve, poor fit] | –
37 | O=C1/C(=C/c2ccco2)Cc2ccccc21 | active: 13.5 µM | –
38 | COc1cccc(-c2nnc(N(C)C(=O)c3ccno3)s2)c1 | inconclusive: 9.53 µM [inhibitor, partial curve] | –
39 | CCn1ncc2c1C(=O)NC1c3ccccc3C(=O)N21 (stereo not drawn) | inconclusive: 37.9 µM [inhibitor, partial curve, poor fit] | –
40 | COc1ccc(C(=O)NCCc2sc(-c3cccc(F)c3)nc2C)cc1 | inconclusive: 16.9 µM [inhibitor, single point] | –
41 | Cn1cc(C=O)c(-c2ccc3c(c2)OCCCO3)n1 | inconclusive: 37.9 µM [inhibitor, single point] | –
42 | CCOc1ccc(NS(=O)(=O)c2ccc(C(=O)N(C)CC(=O)Nc3ccc(C)cc3)cc2)cc1 | – | inactive: 0.173%
43 | Cc1ccnc(NC(=O)/C=C/c2cccs2)c1 | active: 3.01 µM | –
44 | CCS(=O)(=O)c1ncc(N(Cc2ccco2)Cc2sccc2C)c(C(=O)Nc2cc(C)ccc2C)n1 | – | inactive: -0.415%
45 | O=C(CSc1nncn1-c1ccccc1)NC1CCCCC1 | – | inactive: 3.34%
46 | CC(=O)c1ccc(Nc2nc(-c3cccnc3)cs2)cc1 | inconclusive: 1.69 µM [inhibitor, partial curve, poor fit] | –
47 | Cc1ccc(CNc2ccc(CNc3ncn[nH]3)cc2)cc1 | inconclusive: 37.9 µM [inhibitor, single point] | –
48 | O=C(CSc1nc2nn(-c3ccccc3)c(=O)c-2c2n1CCCCC2)c1ccc(O)c(O)c1 | – | inactive: -2.1%
49 | CCOC(=O)c1ccc(NC(=O)Nc2ccc3c(c2)OCCO3)cc1 | active: 19 µM | –
50 | NCCCNc1nc(N)c([N+](=O)[O-])c(NC2CCCCC2)n1 | – | inactive: -1.46%

Row | Structure (SMILES) | Potency | activity change, negative = inhibition
51 | CCCn1c(=O)c2sccc2n2c(CCCC(=O)N3CCN(c4ccccc4)CC3)nnc12 | – | inactive: -3.01%
52 | CC(=O)c1cccc(NC(=O)CCS(=O)(=O)c2cc(Br)cc3c2N(C(=O)C2CC2)CC3)c1 | – | inactive: 1.38%
53 | Cc1ccc(NC(=O)COC(=O)[C@@H]2CCCN2C(=O)c2cccs2)cc1S(=O)(=O)N(C)C | inconclusive: 26.9 µM [inhibitor, partial curve, poor fit] | –
54 | CCOc1ccc(S(=O)(=O)Nc2ccc3oc(C)c(C(=O)OCCOC)c3c2)cc1 | inconclusive: 37.9 µM [inhibitor, partial curve, poor fit] | –
55 | Oc1ccc(N=Nc2nc(-c3ccccc3)c(-c3ccccc3)[nH]2)cc1 | inconclusive: 21.3 µM [inhibitor, single point] | –
56 | COCC(C)NC(=O)c1cc(-c2ccccc2OC)on1 (stereo not drawn) | inconclusive: 21.3 µM [inhibitor, single point] | –
57 | N=c1oc2ccccc2cc1-c1nc(-c2ccccc2)cs1 | active: 4.78 µM | –
58 | O=S(=O)(Nc1cccc(-c2ccc(N3CCCCC3)nn2)c1)c1cccs1 | active: 0.953 µM | –
59 | O=C(/C=C/c1c(F)cccc1Cl)Nc1ncccn1 | active: 15.1 µM | –
60 | Cc1cccc(NC(=O)NC2CCCCCCC2)c1 | active: 10.7 µM | –
61 | COc1ccc(OC)c(C2CC(=O)c3c([nH]c(C(=O)OCC4CCCCC4)c3C)C2)c1 (stereo not drawn) | – | inactive: -7.8%
62 | COc1ccc2c(c1)oc(=O)c1c3ccccc3[nH]c21 | inconclusive: 2.39 µM [inhibitor, full curve] | –
63 | Cc1cccc(CCn2c(=O)c3ccccc3n(Cc3cccc(F)c3)c2=O)c1 | inconclusive: 26.9 µM [inhibitor, partial curve, poor fit] | –
64 | O=C(Nc1cc2c3c(c1)C1CCCC1CN3CC1CCCC21)c1ccccc1 (stereo not drawn) | inconclusive: 21.3 µM [inhibitor, partial curve, poor fit] | –
65 | CCOC(=O)c1nnc2c(-c3ccc(OC)cc3)c(C)nn2c1N | inconclusive: 12 µM [inhibitor, partial curve, poor fit] | –
66 | COc1ccccc1NC(=O)n1ncc2c(C)cccc21 | – | inactive: -6.94%
67 | COc1cc(/C=N\Nc2nncn2N)ccc1OC(C)=O | inconclusive: 19 µM [inhibitor, partial curve, poor fit] | –
68 | O=C(COC(=O)CCC(=O)c1ccc(Cl)cc1)NCCc1ccccc1 | inconclusive: 37.9 µM [inhibitor, partial curve, poor fit] | –
69 | Cc1nc(CS(=O)(=O)c2ccccc2)cc(Sc2ccccc2Cl)n1 | inconclusive: 26.9 µM [inhibitor, single point] | –
70 | Cc1ccn2cc(-c3ccc(Br)cc3)nc2c1 | active: 0.151 µM | –
71 | CC(C)(C)c1ccc(C(=O)NCCCn2ccnc2)cc1 | inconclusive: 30.1 µM [inhibitor, single point] | –
72 | Cc1cccc(-n2cc(-c3ccccc3)[nH]c2=S)c1 | inconclusive: 21.3 µM [inhibitor, partial curve, poor fit] | –
73 | CC(/C=C/c1ccco1)=N\NC(=O)COc1ccc(C)c(C)c1 | inconclusive: 23.9 µM [inhibitor, single point] | –
